# Test results published in article PMC7819943, “Rice protein-binding microarrays: a tool to detect cis-acting elements near promoter regions in rice”.
# The other results are listed elsewhere or left out.
# Molecular target: T1, OsWOX13 (Oryza sativa, UniProt Q5QMM3 1-267)
# T1 sequence: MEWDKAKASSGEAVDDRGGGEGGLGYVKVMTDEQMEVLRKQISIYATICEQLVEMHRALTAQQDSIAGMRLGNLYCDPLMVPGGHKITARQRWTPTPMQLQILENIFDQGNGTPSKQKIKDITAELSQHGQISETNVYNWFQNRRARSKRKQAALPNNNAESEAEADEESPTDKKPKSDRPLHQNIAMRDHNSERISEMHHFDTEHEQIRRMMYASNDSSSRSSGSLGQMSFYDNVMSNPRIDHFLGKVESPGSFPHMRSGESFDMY
# Experiment: protein-binding microarray (RPBM); PBS, 2% BSA, 51.3 ng/ul salmon testes DNA, 50 uM zinc acetate, 200 nM TF, 25 C, 1 h; high values mean tight binding
# Settings: protein: recombinant; tags: N-terminal polyhistidine and DsRed monomer fusion (pET32a); label: CyDye5-dUTP incorporated in the synthesized complementary strand; 3' TTTTT single-stranded linker to array surface; dsDNA, one strand shown
# In short: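 Binding signal is reported as fluorescence intensity per feature (arbitrary units) from an Axon 4000B scanner. Incubation used 200 nM of each Ni–NTA-purified, N-terminally polyhistidine- and DsRed-fused transcription factor from E. coli BL21-CodonPlus on a double-stranded custom Agilent array for 1 h at 25 °C, with 50 µM zinc acetate in the buffer, followed by washing.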
row,Sequence,binding signal
1,TTATGTCAATCAAATGTAACCTTAATTCTTCATATTGTTTCGGAGTCACCTAGTGCAG,12900 fluorescence intensity (a.u.)
2,GAACTGATGATCAGCTCGGTGACAATAATTTCAGCAAAGGCGGAGTCACCTAGTGCAG,3260 fluorescence intensity (a.u.)
3,AAATCTGATTTGCCATTGATAACATGAAAGCTCAAGAGCTCGGAGTCACCTAGTGCAG,16400 fluorescence intensity (a.u.)
4,ATGTTAACAGAACAATATATACTATCATGGAACACTAGAACGGAGTCACCTAGTGCAG,4610 fluorescence intensity (a.u.)
5,TTTAATCATGGACATGATCAATTGATCAGAACAACAAACACGGAGTCACCTAGTGCAG,7730 fluorescence intensity (a.u.)
6,GTGGGGATTGGGGATCGGAGAGAAGGGGAAATTTTGGACGCGGAGTCACCTAGTGCAG,4740 fluorescence intensity (a.u.)
7,GCAGTATTCATTTGTGTGATTAATTAGTGGTGAGTAAACACGGAGTCACCTAGTGCAG,11600 fluorescence intensity (a.u.)
8,TTTGATTTGCATACATGTAATCCTCAAGATATCTCCACGTCGGAGTCACCTAGTGCAG,38800 fluorescence intensity (a.u.)
9,CTGACAAATTAGAGACTACAGAGCAAAAGGTTCAGACATACGGAGTCACCTAGTGCAG,7000 fluorescence intensity (a.u.)
10,GATAGATAGATAGATACATACACACAAACATAAGTAGCTACGGAGTCACCTAGTGCAG,19100 fluorescence intensity (a.u.)
11,TCATAAATTCAATTTCATCCATTATCCTATTTTAGACTACCGGAGTCACCTAGTGCAG,9280 fluorescence intensity (a.u.)
12,TTCAATAATTGAGATCCCTTCTCTCTATGTTACTTCCTCCCGGAGTCACCTAGTGCAG,24000 fluorescence intensity (a.u.)
13,CGTGCGTTTATAGGGGTGACTGCGTGTGTGTAATGAGTGTCGGAGTCACCTAGTGCAG,3270 fluorescence intensity (a.u.)
14,AGATTGATTATAGATGAATTGGAGATAGTAGCGGGCTATACGGAGTCACCTAGTGCAG,32100 fluorescence intensity (a.u.)
15,TTTAATTTGGGAGTTTGTTTACTGCACATAGAGAAGCTAGCGGAGTCACCTAGTGCAG,10700 fluorescence intensity (a.u.)
16,CATCCCTTTTAATTATTTGAGATTAAGTCCTTACCTACTACGGAGTCACCTAGTGCAG,5000 fluorescence intensity (a.u.)
17,CAATTAATCATACGCTAATGGCTCAACTCGTTTTGTGTATCGGAGTCACCTAGTGCAG,9170 fluorescence intensity (a.u.)
18,CTGATTGATTCGTAATAGTAGAATAGGACATGTTACCATACGGAGTCACCTAGTGCAG,64500 fluorescence intensity (a.u.)
19,ATCACATCGTTTTAATTTCAATCAAACTTCCAATATTAGCCGGAGTCACCTAGTGCAG,17500 fluorescence intensity (a.u.)
20,GGAAATTGACTAATTAATATTAAGCTCTTGATTGTCAAAACGGAGTCACCTAGTGCAG,42600 fluorescence intensity (a.u.)
21,TTTAAAATGATAGGAATTCAATCCTTTATTTCAAAGGCATCGGAGTCACCTAGTGCAG,5150 fluorescence intensity (a.u.)

row,Sequence,binding signal
1,ACAAATTTAACGATTTTATAATTATATAAAAGTTACATATCGGAGTCACCTAGTGCAG,11700 fluorescence intensity (a.u.)
2,TTCCATACAAATCAATCGTTCAGTCATATAATCGTCGCATCGGAGTCACCTAGTGCAG,3560 fluorescence intensity (a.u.)
3,ATTAATTATTAATTTACTTTTGACAATTACTAATTAGCCACGGAGTCACCTAGTGCAG,56700 fluorescence intensity (a.u.)
4,CTCCCAATGTACATTAACAGGTAGTGACGGGATAGACGAACGGAGTCACCTAGTGCAG,6110 fluorescence intensity (a.u.)
5,GCAAATTGATATGCTAGCTGTAATCCACATATTTCAGTAGCGGAGTCACCTAGTGCAG,40200 fluorescence intensity (a.u.)
6,CTTAACTGCTACGAGGGCTGAGATTCGCATTGAAACATTGCGGAGTCACCTAGTGCAG,8220 fluorescence intensity (a.u.)
7,AATGATTTCAGTGATGATAATATGTTGGGTTCTGGAAGCTCGGAGTCACCTAGTGCAG,15800 fluorescence intensity (a.u.)
8,TTGATTAAGTATGAATGATCCCTTTAGCGAATTCGGTAGCCGGAGTCACCTAGTGCAG,13500 fluorescence intensity (a.u.)
9,GTTGAGTGGATTGAATGGAGGGAGTGTTTCTGTTGTTGCACGGAGTCACCTAGTGCAG,24700 fluorescence intensity (a.u.)
10,TCTTGTCATCATTTGATTATTTCCTAAGCCCTGTTTCCTTCGGAGTCACCTAGTGCAG,6570 fluorescence intensity (a.u.)
11,TCTGATTTCTTCTTCAGTTCTGCTTCTTCCCATCCAAAGCCGGAGTCACCTAGTGCAG,9790 fluorescence intensity (a.u.)
12,ACAAATTTTATAAACCAAAATTTAAATACAAATTCTCTGACGGAGTCACCTAGTGCAG,4720 fluorescence intensity (a.u.)
13,TTCAAATAATTGTCATTAAATATTATTCATTCTTAAACTTCGGAGTCACCTAGTGCAG,7640 fluorescence intensity (a.u.)
14,AATATAACTATTTAAATTGCAAATAATTGGTGGACCTCACCGGAGTCACCTAGTGCAG,29100 fluorescence intensity (a.u.)
15,CCACAATTCCCATTTCACACATTTCATTTGGGCCTCTAAACGGAGTCACCTAGTGCAG,47600 fluorescence intensity (a.u.)
16,GTTTGCTAATTATAATATCACATAAATGCTATGTCGAAGGCGGAGTCACCTAGTGCAG,22000 fluorescence intensity (a.u.)
17,TGGCCAATTAATGTTTGTTAGACGGCATGTACGGATCAAACGGAGTCACCTAGTGCAG,15000 fluorescence intensity (a.u.)
18,TAGTTAACAGATTCATCATCCAACCTTTTGCTTAATCATACGGAGTCACCTAGTGCAG,8300 fluorescence intensity (a.u.)
19,AGACATTTTGCCAGATAATTGGCATGCATGCAGCCTACCACGGAGTCACCTAGTGCAG,7880 fluorescence intensity (a.u.)
20,AAAGATTGAGAAATGGAAGACCTAGCTCAGGATTTGATGACGGAGTCACCTAGTGCAG,20500 fluorescence intensity (a.u.)
21,GTATAAATTAGATGTTATCCATCGTCATAGCCATCGAAATCGGAGTCACCTAGTGCAG,13600 fluorescence intensity (a.u.)

row,Sequence,binding signal
1,GATAAAAGTTATTGATATTAATTTATAGTTGACATACACTCGGAGTCACCTAGTGCAG,15800 fluorescence intensity (a.u.)
2,CTACATACTATTTAAATTTAAATTATCATAAACCATATTACGGAGTCACCTAGTGCAG,11300 fluorescence intensity (a.u.)
3,TGGTGACAGAAGTAATTGTAGCTGAGTTCCACAAAGAAAACGGAGTCACCTAGTGCAG,7090 fluorescence intensity (a.u.)
4,TTTAATTGCTGGACAATAACTTTTAAACTATATGTTCCTACGGAGTCACCTAGTGCAG,36300 fluorescence intensity (a.u.)
5,GCGATTGCAATTAGCGCCGAGCCCTCTTTGTTTAGGTTTACGGAGTCACCTAGTGCAG,6570 fluorescence intensity (a.u.)
6,GAGAATTAATCCTAAATTTGCAATAAAGAAATTAGGGTAACGGAGTCACCTAGTGCAG,8720 fluorescence intensity (a.u.)
7,CTGACAGTGATGAGCGTTTCCCTGTGATCCTTTCCTTACGCGGAGTCACCTAGTGCAG,10500 fluorescence intensity (a.u.)
8,ATGATGAGATTGAGGTTGATATAGATAGCTTTGATGTTGACGGAGTCACCTAGTGCAG,23200 fluorescence intensity (a.u.)
9,AGAAACAGTCATCACAGAATGACAGAAACATAAAGAGACACGGAGTCACCTAGTGCAG,5110 fluorescence intensity (a.u.)
10,GTTTTACAAATTTTGATAAGTTAACAAACTAAACACAACCCGGAGTCACCTAGTGCAG,5010 fluorescence intensity (a.u.)
11,CTCTTAGAAATTAGATTACGACTTTACGAGTATAAAGCTCCGGAGTCACCTAGTGCAG,4710 fluorescence intensity (a.u.)
12,GCTCCTGATTTGCGTCGAGGTGCACAGGAAGAGCCACACACGGAGTCACCTAGTGCAG,7330 fluorescence intensity (a.u.)
13,CGGTTTTGATTAGGTAAGGGACGCTGAATATCTGATTTTGCGGAGTCACCTAGTGCAG,18200 fluorescence intensity (a.u.)
14,ACATGATGAGCACTGCACTGGAACTGAATGCATCATATCACGGAGTCACCTAGTGCAG,5790 fluorescence intensity (a.u.)
15,GTCCATTAGCGTGTGATTAATTAAGTATTAGCTAATATTTCGGAGTCACCTAGTGCAG,11200 fluorescence intensity (a.u.)
16,TACGTATACTTTTGTCAATTATCACAAAACTACAGATTTACGGAGTCACCTAGTGCAG,3660 fluorescence intensity (a.u.)
17,TTGAATGGAATTGGATTTCGAAACCATTTTGAGTGGTGTACGGAGTCACCTAGTGCAG,8180 fluorescence intensity (a.u.)
18,TGGAAAATTGGAAATCTCCATGCGGTTCCGTGTCGTCCAACGGAGTCACCTAGTGCAG,8920 fluorescence intensity (a.u.)
19,ATCCATGATTAACAGTTGATTACTGTAGCAAATCATGGATCGGAGTCACCTAGTGCAG,34400 fluorescence intensity (a.u.)
20,TTCTGCTAATTGTTTGATTTTGTAATATCAGTTGATCTTCCGGAGTCACCTAGTGCAG,27300 fluorescence intensity (a.u.)
21,CATTATTGCCCTTGACAGTTTTCTTATTTACCTGCCATACCGGAGTCACCTAGTGCAG,7640 fluorescence intensity (a.u.)

row,Sequence,binding signal
1,CTATGATTTTACAATTTAAAATTATATTATATAAAGTCAGCGGAGTCACCTAGTGCAG,46800 fluorescence intensity (a.u.)
2,ATGAAATTGGGGAGGAATTGAAGTTGAAGGACTCCATGTACGGAGTCACCTAGTGCAG,8920 fluorescence intensity (a.u.)
3,GGAGGGATTGGAAATTTAGAGGGATGAGACTATTAAGAGTCGGAGTCACCTAGTGCAG,6190 fluorescence intensity (a.u.)
4,TGACTTGATTGAGTAGCTGCTATGCTAGGCCGTGTAATGCCGGAGTCACCTAGTGCAG,46700 fluorescence intensity (a.u.)
5,CTACTTAACTGAACAAGTGAACAATCCACTTATCTTATCACGGAGTCACCTAGTGCAG,8000 fluorescence intensity (a.u.)
6,ACTAAATCACAAAACTTAAATGTTTATAACTCAAACATAACGGAGTCACCTAGTGCAG,3940 fluorescence intensity (a.u.)
7,CTACTAATTAGTAGTGCTGTGCATAAGCTCAGACTCAGGGCGGAGTCACCTAGTGCAG,34800 fluorescence intensity (a.u.)
8,CATATAATTAAACAATTCCATTCCAAGTATATATATGTTACGGAGTCACCTAGTGCAG,3200 fluorescence intensity (a.u.)
9,AGAAAGTAATTAGAAAGTGGCATGTTGTTTCAATGTCATCCGGAGTCACCTAGTGCAG,8070 fluorescence intensity (a.u.)
10,AGACTCCACTGATTATCAGCCTCCTACCCCTACCTGTCAACGGAGTCACCTAGTGCAG,7010 fluorescence intensity (a.u.)
11,ACCTAATTGGTCACTAACTGCTAATCTTTCATCCACTAACCGGAGTCACCTAGTGCAG,47200 fluorescence intensity (a.u.)
12,AACTAAAACACAGAAATTGATAGTCCAGCAAAACTAGCCCCGGAGTCACCTAGTGCAG,5180 fluorescence intensity (a.u.)
13,CTACTAATTAATCATCCTCGATCGATCGATCTCGGTCGTGCGGAGTCACCTAGTGCAG,34400 fluorescence intensity (a.u.)
14,ATAGCTAATAATCAATTAATTACGCTCTAATATACCGCTCCGGAGTCACCTAGTGCAG,42300 fluorescence intensity (a.u.)
15,CTTTACAAATTTAAATCTATGATTACGTAGATAACATTTGCGGAGTCACCTAGTGCAG,25000 fluorescence intensity (a.u.)
16,TGATAAACTGACGTCATGTGATTTATGGTGCAGTGATTTGCGGAGTCACCTAGTGCAG,20600 fluorescence intensity (a.u.)
17,TTGCTTGATTAGATGCAGAAAGAAGCGAGGTTTATTAAACCGGAGTCACCTAGTGCAG,24900 fluorescence intensity (a.u.)
18,CTAAATTATTATTATTTTAAATCCTATACTCACAAGATTTCGGAGTCACCTAGTGCAG,8970 fluorescence intensity (a.u.)
19,TTTAATTATTCTCTAGCTACTTACTAAAGTTTGATATACTCGGAGTCACCTAGTGCAG,6840 fluorescence intensity (a.u.)
20,ACTAATGAAATGGCCAGATCTTATAAATCCTGGGTGGGTACGGAGTCACCTAGTGCAG,4270 fluorescence intensity (a.u.)
21,TTTCAAATCTAACTATAGTATAATTATAATATAATTTTACCGGAGTCACCTAGTGCAG,8010 fluorescence intensity (a.u.)
